These are yes or no findings as the source states them, for the method shown. Binding seen in cells or lysates may run through a third protein. Some binding calls cover weakened binding; strength is not graded here.
B1: 4E-T (eukaryotic translation initiation factor 4E nuclear import factor 1, EIF4ENIF1), endogenous in MDA-MB-231 (protein, UniProt Q9NRA8 1-985)
chain: MDRRSMGETESGDAFLDLKKPPASKCPHRYTKEELLDIKELPHSKQRPSCLSEKYDSDGVWDPEKWHASLYPASGRSSPVESLKKELDTDRPSLVRRIVDPRERVKEDDLDVVLSPQRRSFGGGCHVTAAVSSRRSGSPLEKDSDGLRLLGGRRIGSGRIISARTFEKDHRLSDKDLRDLRDRDRERDFKDKRFRREFGDSKRVFGERRRNDSYTEEEPEWFSAGPTSQSETIELTGFDDKILEEDHKGRKRTRRRTASVKEGIVECNGGVAEEDEVEVILAQEPAADQEVPRDAVLPEQSPGDFDFNEFFNLDKVPCLASMIEDVLGEGSVSASRFSRWFSNPSRSGSRSSSLGSTPHEELERLAGLEQAILSPGQNSGNYFAPIPLEDHAENKVDILEMLQKAKVDLKPLLSSLSANKEKLKESSHSGVVLSVEEVEAGLKGLKVDQQVKNSTPFMAEHLEETLSAVTNNRQLKKDGDMTAFNKLVSTMKASGTLPSQPKVSRNLESHLMSPAEIPGQPVPKNILQELLGQPVQRPASSNLLSGLMGSLEPTTSLLGQRAPSPPLSQVFQTRAASADYLRPRIPSPIGFTPGPQQLLGDPFQGMRKPMSPITAQMSQLELQQAALEGLALPHDLAVQAANFYQPGFGKPQVDRTRDGFRNRQQRVTKSPAPVHRGNSSSPAPAASITSMLSPSFTPTSVIRKMYESKEKSKEEPASGKAALGDSKEDTQKASEENLLSSSSVPSADRDSSPTTNSKLSALQRSSCSTPLSQANRYTKEQDYRPKATGRKTPTLASPVPTTPFLRPVHQVPLVPHVPMVRPAHQLHPGLVQRMLAQGVHPQHLPSLLQTGVLPPGMDLSHLQGISGPILGQPFYPLPAASHPLLNPRPGTPLHLAMVQQQLQRSVLHPPGSGSHAAAVSVQTTPQNVPSRSGLPHMHSQLEHRPSQRSSSPVGLAKWFGSDVLQQPLPSMPAKVISVDELEYRQ
B2: endogenous 4E-T of mouse embryonic fibroblasts (protein, UniProt Q9EST3 1-983)
chain: MEKSVAETENGDAFLELKKLPTSKSPHRYTKEELLDIKERPYSKQRPSCLSEKYDSDGVWDPEKWHASLYPASGRSSPVESLKKESESDRPSLVRRIADPRERVKEDDLDVVLSPQRRSFGGGCHVTAAVSSRRSGSPLEKDSDGLRLLGGRRIGSGRIISARAFEKDHRLSDKDLRDLRDRDRERDYKDKRFRREFGDSKRVFGERRRNDSYTEEEPEWFSAGPTSQSETIELTGFDDKILEEDHKGRKRTRRRTASVKEGIVECNGGVAEEDEVEVILAQEPSADQEVPRDVILPEQSPGEFDFNEFFNLDKVPCLASMIEDVLGEGSVSASRFSRWFSNPSRSGSRSSSLGSTPHEELERLAGLEQAVLSPGQNSGNYFAPIPSEDHAENKVDILEMLQKAKVDLKPLLSSLSANKEKLKESSHSGVVLSVEEVEAGLKGLKVDQQMKNSTPFMAEHLEETLSAASSNRQLKKDGDMTAFNKLVNTMKASGTLPTQPKVSRNVESHLLAPAEIPGQPVSKNILQELLGQPVQRPASSNLLSGLMGSLEATASLLSQRAPSPPMSQVFRTQAASADYLHPRIPSPIGFPSGPQQLLGDPFQGMRKPMSPVSAQMSQLELQQAALEGLALPHDLAVQTAPFYQPGFSKPQVDRTRDGLRNRQQRMSKSPAPMHGGNSSSPAPAASITSMLSPSFTPTSVIRKMYESREKTKEEMAPGMVVPGDGKEDTQKTSEENLLSSNPIPNTDQDSSTTNPKLSTLQRSSCSTPLSQTSRYTKEQDYRPKTAGRKTPTLASPVPGTPFLRPTHQVPLVPHVPIVRPAHQLHPGLVQRLIAQGVHPQHLPSLLQAGVLPPGIDMAPLQGLSGPLLGQPLYPLVSAASHPLLNPRPGTPLHLAVMQQQLQRSVLHPPGSSSQAAAISVQTPQNVPSRSGMPHMHSQLEHRTSQRSSSPVGLAKWFGSDVLQQPLPSMPTKVISVDELEYRQ

The chains behind the UniProt entries cited, without tags or fusion partners. Where a name states a change or a piece, a line headed by the entry shows the natural chain unless it says otherwise.
UniProt P06730: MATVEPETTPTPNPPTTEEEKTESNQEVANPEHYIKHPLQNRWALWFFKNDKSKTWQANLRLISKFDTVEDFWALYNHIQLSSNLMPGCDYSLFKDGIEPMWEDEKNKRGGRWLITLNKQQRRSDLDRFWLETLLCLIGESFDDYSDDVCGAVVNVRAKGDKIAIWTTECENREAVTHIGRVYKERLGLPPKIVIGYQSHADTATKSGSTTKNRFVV
UniProt P63073: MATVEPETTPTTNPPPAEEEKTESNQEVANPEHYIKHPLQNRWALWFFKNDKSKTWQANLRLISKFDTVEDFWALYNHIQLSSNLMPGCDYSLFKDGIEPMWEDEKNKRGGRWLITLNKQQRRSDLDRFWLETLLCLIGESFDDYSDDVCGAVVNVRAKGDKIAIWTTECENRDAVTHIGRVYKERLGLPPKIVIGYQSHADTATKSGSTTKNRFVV

Tests used:
[1] = biological target: endogenous eIF4E (total) of MDA-MB-231 cells (human (endogenous in MDA-MB-231)) (UniProt P06730); test: co-IP; endogenous eIF4E precipitated with the phospho-specific antibody of eIF4E or with total eIF4E antibody from MDA-MB-231 lysate; cells treated with arsenite with or without CGP 57380; blot for 4E-T
[2] = biological target: endogenous phospho-eIF4E (Ser-209) of MDA-MB-231 cells (human (endogenous in MDA-MB-231)) (UniProt P06730); test: as above
[3] = biological target: endogenous phospho-eIF4E (Ser-209) of MDA-MB-231 cells (human (endogenous in MDA-MB-231)) (UniProt P06730); test: co-IP; immunoprecipitation of endogenous peIF4E from MDA-MB-231 lysate two hours after arsenite treatment; blot for 4E-T
[4] = biological target: Myc-tagged eIF4E-W73A/S209D (UniProt P06730); test: co-IP; anti-Myc tag antibody precipitates exogenous Myc-eIF4E mutants from MDA-MB-231 lysate, normal conditions; Protein G Sepharose, 4°C; lysis buffer 250 mM Tris-HCl, 150 mM NaCl, 1% Triton X-100, 5 mM EDTA; blot for 4E-T
[5] = biological target: Myc-tagged phospho-dead eIF4E-S209A (UniProt P06730); test: as above
Myc-tagged eIF4E-W73A = Myc-tagged eIF4E-W73A (UniProt P06730); test: as above
[6] = biological target: Myc-tagged phosphomimetic eIF4E-S209D (UniProt P06730); test: as above
[7] = biological target: endogenous eIF4E of mouse embryonic fibroblasts (mouse (endogenous in MEFs)) (UniProt P63073); test: co-IP; eIF4E antibody, lysates of MEF WT and MEF Mnk1/2 KO, normal conditions; blot for 4E-T

Binder	binding [1]	binding [2]	binding [3]	binding [4]	binding [5]	binding (Myc-tagged eIF4E-W73A)	binding [6]	binding [7]
B1	binds	binds	no binding (condition: two hours after arsenite treatment)	no binding	no binding	no binding	binds	–
B2	–	–	–	–	–	–	–	binds

From publication PMC4414544
